# Some of the results follow. At the low end of the ranking, values are background and their order means little.
# Biological target: GST-SBP-SLBP (stem-loop binding protein) (UniProt Q14493)
# Experiment: targeted RNA Bind-n-Seq;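 note: DESeq read counts versus GST-SBP nonspecific binding control pulldown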
# Settings: RBNS binding buffer: 25 mM Tris pH 7.5, 150 mM KCl, 3 mM MgCl2, 0.1% Tween, 0.5 mg/mL BSA, 1 mM DTT; 27 nM protein, 750 pM RNA pool; temperature not stated; high values mean tight binding
row,Sequence,binding signal (log2 fold change)
1,GGUCACGUCUCAAUCAACUCUUCGUCCAGGGAAAACCCUGGUAAUCUCAACAGCUCGCAGUCAAG,-0.0145
2,GGUCACGUCUCAAUCAACUCAUCUUCCAGGGAAAACCCUGGUUAUCUCAACAGCUCGCAGUCAAG,-0.0285
3,GGUCACGUCUCAAUCAACUCAUUCCCAGGAGUUUACUCCUGCAUUCUCAACAGCUCGCAGUCAAG,-0.0336
4,GGUCACGUCUCAAUCAACUCCCCAGAGGGGGGGAAAACCCCUUUACCCUCCAAUUCAACAGCUCGCAGUCAAG,-0.296
5,GGUCACGUCUCAAUCAACUCAUUCUCCAGGGAAAUCCCUGGCUAAUUCAACAGCUCGCAGUCAAG,0.264
6,GGUCACGUCUCAAUCAACUCUAUUUCCAGGGAAAUCCCUGGCUAACUCAACAGCUCGCAGUCAAG,0.335
7,GGUCACGUCUCAAUCAACUCUUUUUCCAGGGAAAGCCCUGGCAUUUUCAACAGCUCGCAGUCAAG,-0.0811
8,GGUCACGUCUCAAUCAACUCUUUUUCCAGGGAAAGCCCUGGCAAUGUCAACAGCUCGCAGUCAAG,-0.083
9,GGUCACGUCUCAAUCAACUCAAUCUCAGGAGUUUACUCCUGUUAACUCAACAGCUCGCAGUCAAG,-0.0146
10,GGUCACGUCUCAAUCAACUCAAUCCCCAGGGAAAUCCCUGGCAAUUUCAACAGCUCGCAGUCAAG,-0.0196
11,GGUCACGUCUCAAUCAACUCAUCCCCCAGGGAAACCCCUGGUUAUUUCAACAGCUCGCAGUCAAG,0.114
12,GGUCACGUCUCAAUCAACUCUUCUCCCAGGGAAAGCCCUGGUUUUCUCAACAGCUCGCAGUCAAG,-0.00976
13,GGUCACGUCUCAAUCAACUCUAUCCCAGGAGUUUUCUCCUGUAAUUUCAACAGCUCGCAGUCAAG,-0.238
14,GGUCACGUCUCAAUCAACUCUUCUUCAGGAGUUUCCUCCUGUUUUUUCAACAGCUCGCAGUCAAG,0.0572
15,GGUCACGUCUCAAUCAACUCUAUUCCCAGGGAAACCCCUGGCUAAUUCAACAGCUCGCAGUCAAG,0.00567
16,GGUCACGUCUCAAUCAACUCUUCCUCCAGGGAAACCCCUGGCAAUCUCAACAGCUCGCAGUCAAG,0.0245
17,GGUCACGUCUCAAUCAACUCUUCUCCCAGGGAAAUCCCUGGCAAACUCAACAGCUCGCAGUCAAG,-0.137
18,GGUCACGUCUCAAUCAACUCCUUAGAGGGGGGGAAAACCCCUUUGCCCUCCAUAUCAACAGCUCGCAGUCAAG,-0.162
19,GGUCACGUCUCAAUCAACUCAACUCCAGGAGUUUGCUCCUGCAAUUUCAACAGCUCGCAGUCAAG,0.0411
20,GGUCACGUCUCAAUCAACUCCUCAGAGGGGGGGAAAACCCCUUUGCCCUCAAAAUCAACAGCUCGCAGUCAAG,-0.374
21,GGUCACGUCUCAAUCAACUCCUCUGAGGGGGGGAAAACCCCUUUACCCUCUUUAUCAACAGCUCGCAGUCAAG,-0.114
22,GGUCACGUCUCAAUCAACUCCUAAGAGGGGGGGAAAACCCCUUUGCCCUCCACAUCAACAGCUCGCAGUCAAG,0.161
23,GGUCACGUCUCAAUCAACUCAUCUUCAGGAGUUUUCUCCUGUAUUUUCAACAGCUCGCAGUCAAG,-0.239
24,GGUCACGUCUCAAUCAACUCUAUUCCAGGAGUUUACUCCUGCUAUUUCAACAGCUCGCAGUCAAG,-0.107
25,GGUCACGUCUCAAUCAACUCUUUUCCCAGGGAAAACCCUGGUAAUUUCAACAGCUCGCAGUCAAG,0.159

row,Sequence,binding signal (log2 fold change)
1,GGUCACGUCUCAAUCAACUCAACUUCAGGAGUUUCCUCCUGUUUAUUCAACAGCUCGCAGUCAAG,0.177
2,GGUCACGUCUCAAUCAACUCUUCCCCCAGGGAAACCCCUGGUAAAUUCAACAGCUCGCAGUCAAG,0.122
3,GGUCACGUCUCAAUCAACUCAAGUCCCAGGGAAAGCCCUGGUAAAUUCAACAGCUCGCAGUCAAG,0.121
4,GGUCACGUCUCAAUCAACUCAUCGUCCAGGGAAAACCCUGGUUAUCUCAACAGCUCGCAGUCAAG,-0.0927
5,GGUCACGUCUCAAUCAACUCUUCGUCAGGAGUUUUCUCCUGCAUUUUCAACAGCUCGCAGUCAAG,-0.21
6,GGUCACGUCUCAAUCAACUCUUCUUCCAGGGAAAGCCCUGGCGUUUUCAACAGCUCGCAGUCAAG,-0.069
7,GGUCACGUCUCAAUCAACUCAACUUCAGGAGUUUACUCCUGCAUUUUCAACAGCUCGCAGUCAAG,0.262
8,GGUCACGUCUCAAUCAACUCUUUCCCAGGAGUUUACUCCUGUAAAUUCAACAGCUCGCAGUCAAG,0.252
9,GGUCACGUCUCAAUCAACUCUUACGAGGGGGGGAAAACCCCUUUACCCUCAUCUUCAACAGCUCGCAGUCAAG,-0.298
10,GGUCACGUCUCAAUCAACUCUAUUUCCAGGGAAAUCCCUGGUUUACUCAACAGCUCGCAGUCAAG,0.199
11,GGUCACGUCUCAAUCAACUCCAAAGAGGGGGGGAAAACCCCUUUACCCUCACCUUCAACAGCUCGCAGUCAAG,-0.0478
12,GGUCACGUCUCAAUCAACUCUCUCGAGGGGGGGAAAACCCCUUUGCCCUCACAAUCAACAGCUCGCAGUCAAG,0.0962
13,GGUCACGUCUCAAUCAACUCAAGUCCAGGAGUUUCCUCCUGCUUUUUCAACAGCUCGCAGUCAAG,-0.017
14,GGUCACGUCUCAAUCAACUCUUCUUCAGGAGUUUCCUCCUGCUAUUUCAACAGCUCGCAGUCAAG,0.0457
15,GGUCACGUCUCAAUCAACUCAUCGCCAGGAGUUUUCUCCUGCUAAUUCAACAGCUCGCAGUCAAG,-0.128
16,GGUCACGUCUCAAUCAACUCUAACGAGGGGGGGAAAACCCCUUUACCCUCCAUAUCAACAGCUCGCAGUCAAG,0.0337
17,GGUCACGUCUCAAUCAACUCUAUAGAGGGGGGGAAAACCCCUUUGCCCUCCAUUUCAACAGCUCGCAGUCAAG,-0.245
18,GGUCACGUCUCAAUCAACUCAUUUUCAGGAGUUUUCUCCUGCAUUUUCAACAGCUCGCAGUCAAG,-0.0658
19,GGUCACGUCUCAAUCAACUCUCAAGAGGGGGGGAAAACCCCUUUGCCCUCCAUUUCAACAGCUCGCAGUCAAG,-0.255
20,GGUCACGUCUCAAUCAACUCUCUCGAGGGGGGGAAAACCCCUUUACCCUCACCUUCAACAGCUCGCAGUCAAG,-0.00249
21,GGUCACGUCUCAAUCAACUCUUUCUCAGGAGUUUUCUCCUGUAAAUUCAACAGCUCGCAGUCAAG,-0.000939
22,GGUCACGUCUCAAUCAACUCUUUCUCCAGGGAAAGCCCUGGCUUACUCAACAGCUCGCAGUCAAG,0.166
23,GGUCACGUCUCAAUCAACUCCCAAGAGGGGGGGAAAACCCCUUUACCCUCGUCCUCAACAGCUCGCAGUCAAG,0.0208
24,GGUCACGUCUCAAUCAACUCUUUUCCAGGAGUUUCCUCCUGUAUUCUCAACAGCUCGCAGUCAAG,0.123
25,GGUCACGUCUCAAUCAACUCAUAAGAGGGGGGGAAAACCCCUUUGCCCUCAUCUUCAACAGCUCGCAGUCAAG,-0.359

row,Sequence,binding signal (log2 fold change)
1,GGUCACGUCUCAAUCAACUCAAUCUCAGGAGUUUUCUCCUGCUAUGUCAACAGCUCGCAGUCAAG,0.133
2,GGUCACGUCUCAAUCAACUCAAUCUCAGGAGUUUUCUCCUGUUUUUUCAACAGCUCGCAGUCAAG,-0.0826
3,GGUCACGUCUCAAUCAACUCUACUCCCAGGGAAAGCCCUGGCAUUCUCAACAGCUCGCAGUCAAG,-8.9e-05
4,GGUCACGUCUCAAUCAACUCUAUCUCCAGGGAAAACCCUGGCAAUUUCAACAGCUCGCAGUCAAG,0.0874
5,GGUCACGUCUCAAUCAACUCUUCUCCAGGAGUUUCCUCCUGCAAUUUCAACAGCUCGCAGUCAAG,0.127
6,GGUCACGUCUCAAUCAACUCAGUCUCCAGGGAAAUCCCUGGUUUUUUCAACAGCUCGCAGUCAAG,-0.203
7,GGUCACGUCUCAAUCAACUCAUUCCCCAGGGAAAGCCCUGGCAAAUUCAACAGCUCGCAGUCAAG,0.0362
8,GGUCACGUCUCAAUCAACUCCUAAGAGGGGGGGAAAACCCCUUUACCCUCCAUAUCAACAGCUCGCAGUCAAG,0.202
9,GGUCACGUCUCAAUCAACUCAUCCGCAGGAGUUUUCUCCUGGAAUUUCAACAGCUCGCAGUCAAG,-0.0337
10,GGUCACGUCUCAAUCAACUCAUUUUCCAGGGAAAGCCCUGGUUUUCUCAACAGCUCGCAGUCAAG,-0.0707
11,GGUCACGUCUCAAUCAACUCUCCAGAGGGGGGGAAAACCCCUUUACCCUCAUCGUCAACAGCUCGCAGUCAAG,0.252
12,GGUCACGUCUCAAUCAACUCAUGUCCAGGAGUUUCCUCCUGCUUUUUCAACAGCUCGCAGUCAAG,-0.0312
13,GGUCACGUCUCAAUCAACUCAACUCCCAGGGAAAUCCCUGGCUUUUUCAACAGCUCGCAGUCAAG,-0.0242
14,GGUCACGUCUCAAUCAACUCUUCCUCAGGAGUUUUCUCCUGUUUACUCAACAGCUCGCAGUCAAG,-0.0473
15,GGUCACGUCUCAAUCAACUCAAAAGAGGGGGGGAAAACCCCUUUACCCUCGUCAUCAACAGCUCGCAGUCAAG,-0.086
16,GGUCACGUCUCAAUCAACUCUAAAGAGGGGGGGAAAACCCCUUUACCCUCAACAUCAACAGCUCGCAGUCAAG,-0.0977
17,GGUCACGUCUCAAUCAACUCAUCUCCCAGGGAAAGCCCUGGUUUUCUCAACAGCUCGCAGUCAAG,-0.192
18,GGUCACGUCUCAAUCAACUCAAUCCCCAGGGAAACCCCUGGUAAAUUCAACAGCUCGCAGUCAAG,-0.121
19,GGUCACGUCUCAAUCAACUCAUUCUCAGGAGUUUUCUCCUGUUAUUUCAACAGCUCGCAGUCAAG,-0.0806
20,GGUCACGUCUCAAUCAACUCUUCUUCCAGGGAAAUCCCUGGUAUUUUCAACAGCUCGCAGUCAAG,-0.466
21,GGUCACGUCUCAAUCAACUCAUUCGAGGGGGGGAAAACCCCUUUACCCUCUACCUCAACAGCUCGCAGUCAAG,-0.0771
22,GGUCACGUCUCAAUCAACUCUACGCCAGGAGUUUUCUCCUGCUUUUUCAACAGCUCGCAGUCAAG,-0.215
23,GGUCACGUCUCAAUCAACUCAAUCUCCAGGGAAACCCCUGGUAUUCUCAACAGCUCGCAGUCAAG,-0.0331
24,GGUCACGUCUCAAUCAACUCUUCCUCCAGGGAAAUCCCUGGCUUUCUCAACAGCUCGCAGUCAAG,-0.0301

# Reference: article PMC5892938
